About 5,800 (2.1%) of roughly 270,000 compounds were called active. Inconclusive means that the source gave no clear call. Such entries were picked first, then a sample of the others. Calls come from the whole dose curve; as a rule, active = well fitted inhibition curve with a large enough effect; inconclusive = small, poorly fitted or top-dose-only effect; inactive = flat fitted curve, though single readings scatter. Potencies of inconclusive entries are doubtful fits and often do not repeat.
Each compound was assayed against Microtubule-associated protein tau (Homo sapiens) (UniProt P10636) (assay: qHTS for Inhibitors of Tau Fibril Formation, Thioflavin T Binding). Conditions: recombinant tau K18 P301L (four-repeat tau fragment), heparin-induced fibrillization, ThT fluorescence; series mostly up to 57.4 µM; activity, negative = inhibition: at the top concentration.
Outline: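 Heparin-induced (20 uM) aggregation of recombinant human K18 P301L tau, 15 uM unlabeled with 0.24 uM labeled, pH 7 acetate buffer, 6 hr at 37 C with compound. Fibrils quantified by 30 uM ThT fluorescence after 1 hr ambient incubation.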
% is set by controls: 0 for no effect and ±100 for the full control effect; potency is the fitted concentration of half-maximal effect; tags give direction and shape of the fitted curve.
Note: nearly all actives have a fitted effect of over 55% in size.

UniProt P10636, sequence (P10636 whole entry, looked up, the tested form may be a part): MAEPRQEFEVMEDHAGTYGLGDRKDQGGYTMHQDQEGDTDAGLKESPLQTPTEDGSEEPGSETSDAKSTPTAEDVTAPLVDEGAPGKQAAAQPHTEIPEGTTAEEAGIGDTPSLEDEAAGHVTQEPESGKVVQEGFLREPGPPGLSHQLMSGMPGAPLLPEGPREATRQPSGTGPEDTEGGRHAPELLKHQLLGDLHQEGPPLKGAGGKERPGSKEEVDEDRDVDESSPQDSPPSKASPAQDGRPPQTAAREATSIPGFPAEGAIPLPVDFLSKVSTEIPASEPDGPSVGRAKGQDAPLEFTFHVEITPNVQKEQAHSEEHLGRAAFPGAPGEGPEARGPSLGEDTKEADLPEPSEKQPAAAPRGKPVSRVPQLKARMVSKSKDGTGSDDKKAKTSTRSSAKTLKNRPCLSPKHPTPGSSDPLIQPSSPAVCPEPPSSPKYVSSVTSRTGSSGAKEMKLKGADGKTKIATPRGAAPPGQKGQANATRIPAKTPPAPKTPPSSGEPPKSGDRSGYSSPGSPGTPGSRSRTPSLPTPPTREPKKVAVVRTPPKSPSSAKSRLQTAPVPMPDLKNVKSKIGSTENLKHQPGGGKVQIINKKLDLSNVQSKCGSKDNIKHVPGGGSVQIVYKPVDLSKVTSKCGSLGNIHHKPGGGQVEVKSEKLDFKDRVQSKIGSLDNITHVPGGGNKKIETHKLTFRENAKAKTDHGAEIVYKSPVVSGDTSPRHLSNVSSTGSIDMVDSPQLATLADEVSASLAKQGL

SMILES	activity, negative = inhibition	Potency
Cc1cccc(C)c1OCCN1C(=O)NC(C)(c2ccccc2)C1=O (stereo not given)	inactive: -17.1%	–
COc1cccc(C2NC(c3cccc(OC)c3O)C(C)C(=O)C2C)c1O (stereo not given)	inactive: -9.34%	–
Cc1ccc(C(Nc2ccccn2)c2ccc3cccnc3c2O)cc1 (stereo not given)	–	inconclusive: 10 µM [inhibitor, partial curve]
OCCN1CCN(c2nc(-c3ccccc3)c3cc(Cl)ccc3n2)CC1	–	inconclusive: 22.4 µM [inhibitor, partial curve, poor fit]
O=C1c2ccccc2CC[C@H]1CNCCc1ccc(O)cc1	–	inconclusive: 2.51 µM [inhibitor, partial curve, poor fit]
CCc1ccc(NC(=O)CC2C(=O)N(c3cccc(OC)c3)C(=O)N2Cc2ccco2)cc1 (stereo not given)	inactive: 9%	–
O=C(NC(=S)N1CCOCC1)c1ccc([N+](=O)[O-])cc1	inactive: -0.535%	–
C=C(Cl)COc1ccc2c(CCCC)cc(=O)oc2c1	–	inconclusive: 22.4 µM [inhibitor, single point]
O=C(/C=C/c1ccc2c(c1)OCO2)c1cccs1	–	inconclusive: 3.98 µM [inhibitor, full curve, poor fit]
COc1ccc(N2CCN(C(=O)c3ccc(S(=O)(=O)N4CCOCC4)cc3)CC2)cc1	–	inconclusive: 39.8 µM [inhibitor, single point]
CCN1CCN(C(=O)NC(C(=O)NC2C(=O)N3C2SC(C)(C)C3C(=O)O)c2ccccc2)C(=O)C1=O (stereo not given)	inactive: -0.23%	–
O=S(=O)(Nc1ccc(-c2csc(-c3ccccc3)n2)cc1)c1ccc(F)cc1	inactive: -8.5%	–
CC(=O)c1cccc(NC2c3ncccc3C(=O)N2Cc2ccco2)c1 (stereo not given)	–	inconclusive: 0.355 µM [inhibitor, full curve, poor fit]
O=C1CSC(=Nc2cccc(Cl)c2Cl)N1Cc1cccnc1	–	inconclusive: 39.8 µM [inhibitor, single point]
O=C(NC(=S)N(Cc1ccccc1)Cc1ccccc1)C1CCCCC1	inactive: -15%	–
CCN(CC)c1ccc(N=Cc2cc(Br)ccc2O)cc1	–	active: 15.8 µM
Cc1[nH]c(=O)c(C(=O)/C=C/c2ccccc2)c2c1CCCC2	–	inconclusive: 35.5 µM [inhibitor, partial curve]
CC1=C(C(=O)OC2CCCC2)C(c2ccc(F)cc2F)CC(=O)N1 (stereo not given)	inactive: -4.44%	–
Cc1nc2scc(C)n2c(=O)c1S(=O)(=O)NCc1ccccc1Cl	inactive: -1.42%	–
CC(=O)c1ccc(N2C(=O)N(Cc3cccc(C(F)(F)F)c3)c3ccccc3S2(=O)=O)cc1	inactive: 9.03%	–
CC1CCCC/C1=N\Nc1ccc(S(N)(=O)=O)cc1[N+](=O)[O-] (stereo not given)	–	active: 15.8 µM
Cc1ccc(N=Cc2cccc(O)c2O)c(C)c1	–	active: 3.16 µM
CC(=O)Nc1ccc(NC(=O)CCCc2nc(-c3ccc(C(C)(C)C)cc3)no2)cc1	–	inconclusive: 7.94 µM [inhibitor, partial curve]

SMILES	activity, negative = inhibition	Potency
COc1ccc(CNC(=S)Nc2ccc3nc(N4CCN(C)CC4)cc(C)c3c2)cc1	–	inconclusive: 11.2 µM [inhibitor, partial curve]
CCOC(=O)c1c(C)c(/C=N/Nc2ccccc2)n(C)c1C	–	inconclusive: 14.1 µM [inhibitor, partial curve]
COc1ccccc1NC(=O)N(Cc1ccco1)Cc1cc2cc(C)cc(C)c2[nH]c1=O	–	inconclusive: 15.8 µM [inhibitor, partial curve]
Cc1oc2c(c1C(=O)Nc1cccc(Br)c1)C1=NCCN1C=N2	inactive: -8.7%	–
Cc1ccc(CCNC(=O)CS(=O)Cc2nc(-c3cccs3)oc2C)cc1 (stereo not given)	–	inconclusive: 7.94 µM [inhibitor, partial curve, poor fit]
Cn1nnnc1SCC(=O)N1CCN(c2ccc(Cl)cc2)CC1	–	inconclusive: 17.8 µM [inhibitor, single point]
COCc1c(C(=O)OCc2c(C)noc2C)oc2ccccc12	–	inconclusive: 11.2 µM [inhibitor, partial curve]
C=CCOc1cccc(C2/C(=C(/O)c3ccc(C)cc3)C(=O)C(=O)N2CCN2CCOCC2)c1 (stereo not given)	–	inconclusive: 31.6 µM [inhibitor, single point]
COc1cccc(C2/C(=C(\O)c3c(C)nc4c(C)cccn34)C(=O)C(=O)N2CCCN(C)C)c1 (stereo not given)	inactive: -1.12%	–
Cc1cc(OCc2ccc(C(=O)n3cccn3)o2)ccc1Cl	–	inconclusive: 15.8 µM [inhibitor, partial curve]
Cc1ccc(O)c(/C=N/NC(=O)C2=NNC(c3ccccc3)(c3ccccc3)C2)c1	–	inconclusive: 31.6 µM [inhibitor, single point]
Cc1nc(SC2CC(=O)N(c3ccc([N+](=O)[O-])cc3)C2=O)nc2c1CCCC2 (stereo not given)	–	inconclusive: 39.8 µM [inhibitor, single point]
CCOC(=O)C1CCN(C(=O)Nc2ccc3nc(-c4ccco4)c(-c4ccco4)nc3c2)CC1	–	active: 3.16 µM
C=CCNc1nc(Cl)nc(Nc2ccc(OCC)cc2)n1	–	inconclusive: 17.8 µM [inhibitor, single point]
Cc1ccc(C(=O)Oc2cc(N)n(S(=O)(=O)c3ccc(C)cc3)n2)cc1	–	inconclusive: 8.91 µM [inhibitor, partial curve]
COc1ccc(NC(=O)c2c(NC(=O)CNCc3ccco3)sc3c2CCC3)cc1	–	inconclusive: 22.4 µM [inhibitor, partial curve]
COc1ccc(/C=N/Nc2nc(NCc3ccco3)nc(Nc3ccc(OC)cc3)n2)cc1	–	inconclusive: 7.94 µM [inhibitor, partial curve]
Cc1cc(C(=O)CSc2nnc(-c3ccco3)o2)c(C)n1-c1ccc2c(c1)OCCO2	–	inconclusive: 20 µM [inhibitor, partial curve]
CCOC(=O)c1c(NC(=O)c2cccs2)sc2c1CC(C)(C)OC2	–	inconclusive: 31.6 µM [inhibitor, single point]
O=C(CNC(=O)c1ccco1)Nc1ccc(F)cc1	inactive: -5.59%	–
COc1ccc(C(N)CCc2ccc(C)o2)cc1 (stereo not given)	–	inconclusive: 20 µM [inhibitor, partial curve]
COc1ccccc1Oc1ccc(S(=O)(=O)NCc2ccccn2)cc1	inactive: -2.17%	–
